This is one part of the list.

This assay concerns PfSIP2 AP2 domain 1 (GST-tagged). The experiment in a line: gcPBM binding intensity (ln(normalized median fluorescence intensity)); higher = stronger DNA binding. The essentials: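 Alexa488 anti-GST antibody, scanned at 488 nm, detected GST-tagged P. falciparum DNA-binding domains that had been expressed in E. coli and incubated for 1 h on an Agilent 4 × 180k array. The array carried primer-extended double-stranded 36-bp intergenic genomic probes and negative controls. Binding intensity is the highest Masliner-normalised natural-log median intensity across replicate spots of either orientation of each probe.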
For the sequence “TATATTATAATATTCACACACTAACGTAAATCATTG [CACACA_site7318]”, the “gcPBM binding intensity (ln)” value turned out to be 6.99.
Consider “AAAAAATATATATATATATATATGTAATATTTTTTT [XGTACX_negctrl_site439]”, for which the “gcPBM binding intensity (ln)” value worked out at 7.45.
Under “TGGCAAAATAGGCACACACACATATACAGATATATT [CACACA_site4727]” stands 7.09.
Under “TCAATGAAATTAATATGTACATATTTTTATATAGTA [XGTACX_site7955]” stands 6.98; under “AAAACTATAAAAATTTTACACACTGTTTTTAAATAA [CACACA_site3667]”, 6.88; under “TTTTTTTTTTTTTTTTGTACATATACATATATATAT [XGTACX_site1981]”, 8.5.
With “AGTAGCAAATATTAAGTGCATATTATATAATGTGTA [GTGCAC_site9546]”, the “gcPBM binding intensity (ln)” value was 8.2.
Regarding “ATAAATATGGCAGTACGTACGTATATTCATATTCAT [XGTACX_site8042]”, the “gcPBM binding intensity (ln)” value came out at 6.99.
Under “ATTAAAAAAAAAAAAAAAAAACAAAAAAAAAAAAAA [CACACA_negctrl_site1187]” stands 6.89; under “TGTTCAGTATGGCACACACACAACAAAATAAAAAAA [CACACA_site4368]”, 7.11.
As for “GGTTTACCCTATAAATGTACTCATAAATTATATATA [XGTACX_site5771]”, the “gcPBM binding intensity (ln)” value worked out at 6.99.
On to “ATACGAAATAGAAACACACATACAATAAATAAATAT [CACACA_site2017]”, for which the “gcPBM binding intensity (ln)” value is 7.
The same measure for “AAAAAAAACAGACACACACACATTCAATATAAAACA [CACACA_site41]”: 7; for “ATATCTTATATTATCACACACACACCCACAAAACAG [CACACA_site1464]”: 8.11; for “ATGATATGGATAAATACACACAATATAATAATGGGT [CACACA_site4905]”: 7.04.
The same measure for “ATTTTATATATGTGTTGTACGGTGAACATTTTGATA [XGTACX_site6538]”: 6.95; for “ATATGTATAAATATAAATATATATATATATATATAT [CACACA_negctrl_site705]”: 9.63; for “ACGTTAATATCTACAAGTACCCACATTAACAGGAAA [XGTACX_site2616]”: 7.33.
The same measure for “TATATAAACATCGGTAGTACACACATTCATGTATTT [XGTACX_site6443]”: 7.14; for “GGATCATTTTTAAAGGAACACACAAAAAAAATTATA [CACACA_site8381]”: 6.92.
Consider “TTTTTTTTGAAGAATACATGCATATTTTCTATATTC [TGCATGCA_site43]”, for which the “gcPBM binding intensity (ln)” value turned out to be 6.74.
Consider “ATATAAAATATGTATGAGGAATAAAATTAAAAAAAA [XGTACX_negctrl_site173]”, for which the “gcPBM binding intensity (ln)” value turned out to be 6.77.
The same measure for “ACAATATGCAAAAAGTGTACACATTCATTTATATAA [XGTACX_site1061]”: 7.54; for AATATACAAATAAAGGTGCGAGATATTTTTACTTTT: 9.54.
As to “ATAAAAAAAGATGAACGTACATATATTTTAAAAATC [XGTACX_site5950]”, the “gcPBM binding intensity (ln)” value is 7.11.
As for “TATTAAATATATATTACATGCAAAAAAAAAAAACAA [TGCATGCA_site705]”, the “gcPBM binding intensity (ln)” value amounted to 7.13.
As for GTAAATATTTGTTGGGTGCTATCAATTATTTCAAAG, the “gcPBM binding intensity (ln)” value turned out to be 8.04.
For “TGCGGAAATAAGTGCACACATAGATATATGTATTTT [CACACA_site3689]”, the “gcPBM binding intensity (ln)” value was 10.8.
The same measure for “ATATTATATATGTATAGTACATATTATAAGAAAAAT [XGTACX_site3457]”: 7; for “ATCTATATCTATAATACACACATCATAAAATATGTA [CACACA_site7230]”: 7.19; for “ATATATATTAATAATGCATGTGATATAAATTAATAT [TGCATGCA_site930]”: 7.26.
On to “CGGCACATTCTATATACACACATATAAATATATACA [CACACA_site566]”, for which the “gcPBM binding intensity (ln)” value was 7.16.
Take “TACAATTCGTAATACACACACATATAAATAAATATT [CACACA_site7720]”: the “gcPBM binding intensity (ln)” value came out at 7.28.
With “TATTGTTATTAAAAATGTACATATAAATTTCTTATT [XGTACX_site1409]”, the “gcPBM binding intensity (ln)” value was found to be 7.02.
Turning to “AAAAATAAAAGGTGTGCACACAAAAATATATATATA [CACACA_site8507]”, the “gcPBM binding intensity (ln)” value stood at 8.89.
For the sequence “AATTTAAAAAATAACAGTACATAAAATATATACATA [XGTACX_site7917]”, the “gcPBM binding intensity (ln)” value turned out to be 6.78.
With “TGTGTATATTATATGTGTACATATCAATGTTTATAT [XGTACX_site1885]”, the “gcPBM binding intensity (ln)” value was 7.26.
As for “TAATATTAAATAAATAAAATATATAATATATATATA [XGTACX_negctrl_site49]”, the “gcPBM binding intensity (ln)” value came to 8.33.
In the case of “TAATATATAACGTGCACACACACATCTACGTATGAA [CACACA_site5080]”, the “gcPBM binding intensity (ln)” value was determined as 10.2.
Regarding TGGCATTAAAATTTAGTGCATATATCTTAGCATGGG, the “gcPBM binding intensity (ln)” value was found to be 8.39.
Under “TGCAGTCTGGAGAAGAGTACACAGTATCTGGTAACA [XGTACX_site2037]” stands 6.72.
For “TATATATTCATATGTTGTACATAAATACAAATAAGA [XGTACX_site5602]”, the “gcPBM binding intensity (ln)” value worked out at 7.16.
Consider “AAAGGTAAATGTAAATAAATAAATAATAAATATATA [GTGCAC_negctrl_site681]”, for which the “gcPBM binding intensity (ln)” value worked out at 6.79.
The same measure for “ATTAATATGAATAAAACACACATATATAATTTGTAA [CACACA_site1929]”: 6.87; for “TAACTTTTATCCTTAATTCATATATAAGATTAAATC [CACACA_negctrl_site669]”: 6.99.

Source of the values: the supplement of paper PMC11417369.
